# Further values from the same series stand in other lists.
# System: PRISM panel of 845 cancer cell lines
# Test: PRISM assay
# Assay type: cell-based, human
# Description: The PRISM cell set comprised 845 cell lines representing more than 45 lineages (see Supplementary Table S1 for cell line information), which largely overlapped with the Cancer Cell Line Encyclopedia; https://portals.broadinstitute.org/ccle). Cell lines were grown in RPMI without phenol red and supplemented with 10% or 20% FBS for adherent and suspended lines, respectively. Parental cell lines were stably infected with a unique 24-nucleotide DNA barcode via lentiviral transduction and blasticidin selection. After selection, barcoded cell lines were expanded and subjected to quality control (Mycoplasma contamination test, an SNP test for confirming cell line identity, and barcode ID confirmation). Approved cell lines were then pooled (20–25 cell lines per pool) based on doubling time similarity and frozen in assay-ready vials.
# RMC-6236 was added to 384-well plates at 8-point concentration with 3-fold dilutions in triplicate. These assay-ready plates were then seeded with the thawed cell line pools. Adherent cell pools were plated at 1,250 cells per well, whereas suspension and mixed adherent/suspension pools were plated at 2,000 cells per well. Treated cells were incubated for 5 days, and then lysed. Lysate plates were collapsed together prior to barcode amplification and detection.
# Each cell line's unique barcode is located in the 3′UTR of the blasticidin-resistance gene and therefore is expressed as mRNA. Total mRNA was captured using magnetic particles that recognize polyA sequences. Captured mRNA was reverse-transcribed into cDNA and then the sequence containing the unique PRISM barcode was amplified using PCR. Finally, Luminex beads that recognize the specific barcode sequences in the cell set were hybridized to the PCR products and detected using a Luminex scanner which reports the signal as a median fluorescent intensity (MFI).
# • Each detection well contained 10 control barcodes in increasing abundances as spike-in controls. For each plate, we first create a reference profile by calculating the median of the log2(MFI) values across negative control wells for each of these spiked-in barcodes. • For each well, a monotonic smooth p-spline was fitted to map the spike-in control levels to the reference profile. Next, we transform the log2(MFI) for each cell barcode using the fitted spline to allow well-to-well comparisons by correcting for amplification and detection artifacts. • Next, the separability between negative and positive control treatments was assessed. In particular, we calculated the error rate of the optimum simple threshold classifier between the control samples for each cell line and plate combination. The error rate is a measure of the overlap of the two control sets and was defined as error = (FP + FN)/n, where FP is false positives, FN is false negatives, and n is the total number of controls. A threshold was set between the distributions of positive and negative control log2(MFI) values (with everything below the threshold said to be positive and above said to be negative) such that this value is minimized. Additionally, we also calculated the dynamic range of each cell line. […] Additionally, any cell line that had less than 2 passing replicates was also omitted for the sake of reproducibility. Finally, we computed viability by normalizing with respect to the median negative control for each plate.
# For every gene with nonsilent mutations in at least four cell lines, we compared the AUC values between cells with and without those mutations using a t test. This analysis was carried out for (i) the full data set; (ii) excluding cell lines with nonsilent KRAS mutations; and (iii) excluding cell lines that have either KRAS or NRAS nonsilent mutations.
compound,measurement,setting,value
CCn1c(-c2cc(N3CCN(C)CC3)cnc2[C@H](C)OC)c2c3cc(ccc31)-c1csc(n1)C[C@H](NC(=O)[C@H]1C[C@@H]1C)C(=O)N1CCC[C@H](N1)C(=O)OCC(C)(C)C2 [RMC-6236],RMC-6236: RevMed PRISM: AUC,cell line G402_SOFT_TISSUE,0.8685
same,RMC-6236: RevMed PRISM: AUC,cell line GI1_CENTRAL_NERVOUS_SYSTEM,0.7189
same,RMC-6236: RevMed PRISM: AUC,"cell line GP5D_LARGE_INTESTINE, KRAS p.G12D",0.7332
same,RMC-6236: RevMed PRISM: AUC,cell line GRANTA519_HAEMATOPOIETIC_AND_LYMPHOID_TISSUE,0.875
same,RMC-6236: RevMed PRISM: AUC,cell line H4_CENTRAL_NERVOUS_SYSTEM,0.8759
same,RMC-6236: RevMed PRISM: AUC,cell line H103_UPPER_AERODIGESTIVE_TRACT,0.6213
same,RMC-6236: RevMed PRISM: AUC,cell line HA1E_KIDNEY,0.9707
same,RMC-6236: RevMed PRISM: AUC,cell line HCC78_LUNG,0.6356
same,RMC-6236: RevMed PRISM: AUC,"cell line HCT15_LARGE_INTESTINE, KRAS p.G13D",0.8069
same,RMC-6236: RevMed PRISM: AUC,"cell line HCT116_LARGE_INTESTINE, KRAS p.G13D",0.7053
same,RMC-6236: RevMed PRISM: AUC,"cell line HEC1A_ENDOMETRIUM, KRAS p.G12D",0.5858
same,RMC-6236: RevMed PRISM: AUC,"cell line HEC59_ENDOMETRIUM, NRAS p.A146V",1
same,RMC-6236: RevMed PRISM: AUC,cell line HEC116_ENDOMETRIUM,0.7363
same,RMC-6236: RevMed PRISM: AUC,"cell line HEC151_ENDOMETRIUM, NRAS p.G12D",0.6995
same,RMC-6236: RevMed PRISM: AUC,cell line HEC251_ENDOMETRIUM,0.6732
same,RMC-6236: RevMed PRISM: AUC,cell line HEC265_ENDOMETRIUM,0.8851
same,RMC-6236: RevMed PRISM: AUC,"cell line HEPG2_LIVER, NRAS p.Q61L",0.6146
same,RMC-6236: RevMed PRISM: AUC,"cell line HKA1_SKIN, KRAS p.G12S",0.8508
same,RMC-6236: RevMed PRISM: AUC,cell line HOS_BONE,0.8239
same,RMC-6236: RevMed PRISM: AUC,"cell line HOTHC_THYROID, NRAS p.Q61R",0.8294
same,RMC-6236: RevMed PRISM: AUC,cell line HPBALL_HAEMATOPOIETIC_AND_LYMPHOID_TISSUE,1
same,RMC-6236: RevMed PRISM: AUC,cell line HS611T_HAEMATOPOIETIC_AND_LYMPHOID_TISSUE,1
same,RMC-6236: RevMed PRISM: AUC,"cell line HS852T_SKIN, NRAS p.G12V",0.9366
same,RMC-6236: RevMed PRISM: AUC,cell line HS939T_SKIN,1
same,RMC-6236: RevMed PRISM: AUC,cell line HSC5_SKIN,0.6392
same,RMC-6236: RevMed PRISM: AUC,cell line HT55_LARGE_INTESTINE,0.7084
same,RMC-6236: RevMed PRISM: AUC,"cell line HT1080_SOFT_TISSUE, NRAS p.Q61K",0.2861
same,RMC-6236: RevMed PRISM: AUC,cell line HTMMT_ENDOMETRIUM,0.8088
same,RMC-6236: RevMed PRISM: AUC,cell line HT_HAEMATOPOIETIC_AND_LYMPHOID_TISSUE,0.8003
same,RMC-6236: RevMed PRISM: AUC,cell line HUH1_LIVER,0.7293
same,RMC-6236: RevMed PRISM: AUC,cell line ICC4_BILIARY_TRACT,0.862
same,RMC-6236: RevMed PRISM: AUC,"cell line ICC9_BILIARY_TRACT, KRAS p.G12D",0.4257
same,RMC-6236: RevMed PRISM: AUC,cell line ICC12_BILIARY_TRACT,0.9188
same,RMC-6236: RevMed PRISM: AUC,cell line IHH4_THYROID,0.9163
same,RMC-6236: RevMed PRISM: AUC,cell line J82_URINARY_TRACT,0.9143
same,RMC-6236: RevMed PRISM: AUC,cell line JAR_PLACENTA,0.8818
same,RMC-6236: RevMed PRISM: AUC,cell line JEG3_PLACENTA,0.8862
same,RMC-6236: RevMed PRISM: AUC,cell line JHUEM2_ENDOMETRIUM,0.9163
same,RMC-6236: RevMed PRISM: AUC,"cell line JHUEM7_ENDOMETRIUM, NRAS p.E162Ter",0.6285
same,RMC-6236: RevMed PRISM: AUC,cell line JL1_PLEURA,0.7659
same,RMC-6236: RevMed PRISM: AUC,cell line JMURTK2_SOFT_TISSUE,1
same,RMC-6236: RevMed PRISM: AUC,cell line JR_SOFT_TISSUE,0.7752
same,RMC-6236: RevMed PRISM: AUC,cell line JURKAT_HAEMATOPOIETIC_AND_LYMPHOID_TISSUE,1
same,RMC-6236: RevMed PRISM: AUC,cell line JURLMK1_HAEMATOPOIETIC_AND_LYMPHOID_TISSUE,0.4938
same,RMC-6236: RevMed PRISM: AUC,cell line K029AX_SKIN,0.8714
same,RMC-6236: RevMed PRISM: AUC,cell line K562_HAEMATOPOIETIC_AND_LYMPHOID_TISSUE,0.5482

# Source: article PMC11149917, “Translational and Therapeutic Evaluation of RAS-GTP Inhibition by RMC-6236 in RAS-Driven Cancers” (Cancer Discovery, 2024)
